Measurements published in the supplement of paper PMC3334620.
In all, about 33,000 sequences were measured (“E-score (-0.5 to 0.5)”: median about -0.035, highest 2% from about 0.34 on). Some of the results follow.

Molecular target: T1, Mot3 (UniProt P54785)
T1 sequence: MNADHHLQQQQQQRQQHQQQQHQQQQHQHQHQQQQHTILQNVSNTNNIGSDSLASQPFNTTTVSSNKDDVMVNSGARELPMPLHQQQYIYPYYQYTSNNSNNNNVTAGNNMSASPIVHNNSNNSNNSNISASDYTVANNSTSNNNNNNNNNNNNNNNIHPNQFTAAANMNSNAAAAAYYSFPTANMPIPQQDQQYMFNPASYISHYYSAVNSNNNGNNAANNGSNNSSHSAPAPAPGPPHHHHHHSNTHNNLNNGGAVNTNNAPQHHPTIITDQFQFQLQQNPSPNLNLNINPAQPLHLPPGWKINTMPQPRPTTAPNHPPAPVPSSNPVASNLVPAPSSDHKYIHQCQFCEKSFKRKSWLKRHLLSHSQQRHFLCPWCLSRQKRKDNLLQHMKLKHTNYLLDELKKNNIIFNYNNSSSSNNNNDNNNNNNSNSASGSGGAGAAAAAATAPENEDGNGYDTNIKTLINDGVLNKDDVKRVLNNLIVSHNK
Test: PBM E-score (8-mer binding enrichment) (E-score (-0.5 to 0.5)); higher = stronger / more preferred TF binding; most listed sequences are background and not binding sites
Conditions: protein concentration: 200 nM; construct: GST-full length
Summary of the method: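 Universal all-10-mer Agilent arrays, fresh or stripped once, were converted to double-stranded form by primer extension. GST-tagged yeast transcription factors from PURExpress in vitro transcription/translation, full-length or DNA-binding domain only, were applied at about 100-200 nM and detected with fluorescent anti-GST. After masliner normalisation, the Universal PBM Analysis Suite scored each ungapped eight-base word together with its reverse complement by E-score.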

Sequence	PBM E-score
AATCCCGG	-0.29
GGCAGCAA	0.00515
GCAGACCC	-0.298
CGTATTCC	0.198
CATGGTGG	-0.0263
GATCCGAC	-0.167
ACTCGGCT	-0.34
CGGCAGCC	-0.206
AGTCCATA	-0.281
AATCTTAC	0.181
AATCGTGT	0.286
AAGATGTC	-0.0594
ACGTCCGA	-0.12
AGTCTTAC	-0.0608
AGCTTGCA	-0.0465
AAGTTTGA	0.104
CACGAGCC	-0.132
AACTCGGA	-0.0873
AGACGTCA	-0.0837
CTTTCCAA	-0.0154
AAGCACAT	0.0905
AGAACCGG	-0.217
ACGCCTCC	-0.0931
ATCCCCAG	-0.121
AAATCCTA	0.0766

Sequence	PBM E-score
CACCGAAA	0.0446
CTCACAGC	-0.0824
ATCTGCGG	-0.201
ACCAATTG	-0.199
CCCGGCGC	-0.337
CCGTTGCC	0.167
ATCTGAAT	-0.0896
ACTGAAGA	-0.141
AGGGGGAG	-0.211
AGCCGTTG	-0.158
AGAGATTA	-0.0181
ACTAACCA	0.148
GCGCCTAA	0.205
CATAGGAG	0.0725
ACCCGACG	-0.117
ATACCTTA	-0.0699
TAAGGCAA	0.472
CCACGGCA	-0.14
AGTCATTG	-0.176
AGTGTTAG	0.0278
TCAGGCCA	-0.0359
CCGAACTC	-0.131
AGTGCAGG	0.0699
ACAGGGAG	0.0107
GGCTGTCA	-0.239

Sequence	PBM E-score
CCATGTAA	0.411
ACTCTCAT	-0.154
AGCGGAAA	-0.136
AGATACCA	-0.133
GTATAGAC	0.0959
AGCAGGTA	0.328
CCTATGTA	0.348
GCAGATGA	0.0745
CAAACCGG	-0.0443
CGCAAACG	-0.0554
ACCAAGGC	0.239
CGGCGCTA	-0.158
AGATGTAC	0.0591
ATTATCAG	-0.0609
ATACAGGC	0.333
CCTGCAAC	0.144
ATTAAATA	0.132
CGATGAGA	-0.07
AGGGTAAC	0.00226
GGGCTCAC	-0.262
ATCACACC	-0.0466
CATGTGGA	-0.0255
CTCTACAC	0.223
AGACGAAC	0.0428
ACCAGGTC	-0.191

Sequence	PBM E-score
ACGGTAAC	0.195
AAGGTCCC	-0.184
AGTGTCCG	-0.169
ATAGTCAC	0.231
AGGATATC	-0.168
ATCCGGGA	-0.231
GCTCTGAA	-0.0758
CGATTCAA	-0.0781
CAGACCGA	-0.201
CTTGATCA	-0.143
ACGAATCT	0.0785
GCCACAAA	-0.0162
TATGCAGA	-0.151
ACATAAAG	0.263
AGCAGCCC	-0.115
GGGCTCTA	-0.186
CATTAAGA	-0.00127
ACTTGCTA	0.016
GTAAGTGA	0.0737
CGATATGA	-0.105
CCCATCGA	-0.114
ACAGGTTC	0.299
AAGTAGGA	0.2
CGATACCG	-0.298
AGGACGTA	0.0784

Sequence	PBM E-score
GGTCGGAA	-0.119
AATGTCAA	0.0969
AGACAACC	0.0305
CAGTTTTC	-0.101
AGCCTGAG	-0.116
AAAACAGG	0.191
CAGTCAAC	-0.164
ATGCACAG	-0.125
AATGCTGG	0.0617
ACGGGGCA	-0.23
AGACTCGC	-0.114
GCTGAAAC	0.165
AGTTGCTG	-0.103
CATACTCC	-0.00023
AAGATACG	-0.0326
CGCATAAG	-0.103
CCCGCGGA	-0.194
ATTCTGGG	-0.0973
AAACCAAG	0.271
ATGAGTCG	-0.0573
GACAGCTA	-0.0884
ACCCCCGT	-0.165
CCTTACGC	0.306
CTCCTCCC	-0.277
AATTGCTA	-0.083

Sequence	PBM E-score
AATTACTA	0.154
CATATTAC	0.232
CCAATGAC	-0.125
CGGCCACC	-0.23
TAACCCCA	-0.141
GCATCGAC	-0.0232
TCCTAAAA	0.21
CACCAGAA	0.0304
AGGACACA	0.215
GATGACGA	0.104
CTTCCGAA	-0.271
ATCAGCTG	-0.0375
CCAGGCGA	-0.155
GATCGTTA	-0.106
ACACGGCT	0.243
AATTGCTG	0.0479
ATACCAAC	0.0993
GTCAGACA	-0.114
ATGCGGCC	-0.123
GCCATGAA	-0.191
CATACGCG	0.155
CCCTTGCA	-0.161
GGAGACGA	-0.0123
ATATTTAG	0.139
AATTTCGC	0.0694

Sequence	PBM E-score
ATACGGCG	0.00604
ATAGCATC	-0.164
GATCCGGA	-0.18
CTAGAAGA	-0.142
ACCGGCCC	-0.264
AAGCTCCA	-0.149
TTAGGAAA	0.351
CATTCCAA	-0.0608
CGCCAGAA	-0.272
CATAAAGC	-0.00766
ATACACAG	0.332
GGGTTATA	0.0228
CGGGTATC	-0.118
GCGGTCGA	0.144
TGGGGCAA	-0.158
AGGAATAC	0.156
AGGAAATA	0.368
ACACTCAG	-0.0296
CTTCACCA	-0.119
CTCTAGGA	-0.145
CTGAAATC	-0.0501
AAAAAAGG	0.134
AATTGTAT	0.0986
ATTTTGGA	0.0681
CACTTCCC	-0.239

Sequence	PBM E-score
ACAGTGTC	0.00692
TGTCAAAA	0.241
GAAAATCA	0.128
CAGGACAA	0.0258
AGTCATGC	-0.22
CCCACGTA	0.105
CCGTACGA	-0.125
CCGGCCGC	-0.242
AGGAACCA	0.419
CCACCCCC	-0.309
CTTGTATA	0.17
CAAGAAAG	0.17
CCAATCAC	-0.0609
TCCCGGCA	-0.283
TCTAACAA	-0.00776
ATGTGCTG	0.147
AGTACTGC	-0.16
GTCTGTGA	-0.06
AGGAATCA	0.104
AGCCCTGA	-0.214
GTTGTGTA	0.373
GAGTCGTA	-0.226
ACTGAATC	-0.0804
GGCCCGTA	-0.0246
AATTCTAT	0.129

Sequence	PBM E-score
CCTTTGCG	0.173
CACACGGC	0.0643
CAGTATAG	-0.00777
AAAGATGA	0.174
ACTAAATC	-0.0252
CGCGCGCC	-0.161
CAAAACGC	0.0743
AGATTGAG	0.0525
GGAAGTGA	-0.156
CAATCACC	0.0191
AAGATGAC	0.0906
GCCTGCGA	0.35
CGCTTTAC	0.199
GCCAAGGA	-0.0855
AACGGGGA	-0.072
CGCGGACA	0.0461
CGTGTTTA	0.346
GCGGGAGA	-0.305
CTGTTAGC	-0.143
TCATCCAA	0.0783
AATGAACT	0.0803
GCAATTGA	0.257
AAGGATAT	-0.0885
GAGTCAAC	-0.0553
AAGAAGGA	0.173

Sequence	PBM E-score
TGAGTGCA	-0.0539
ACACCGCA	0.0279
CCCGCAAG	-0.222
AATTAGGA	0.131
AACACCCG	0.0915
AATTTTTA	0.114
CCAAGGCG	-0.0205
ACAGAGGC	0.00619
ATAAGTAC	0.0764
GACACCGC	-0.237
CCGCAGAC	-0.223
CGTTTTTC	-0.0115
ATTAAGGG	-0.014
ATCGTACA	0.125
AGGTCTCA	-0.0024
AGGAAGAG	-0.0959
CATCCTAG	-0.157
ACACTCTA	0.0368
CGGAATAC	0.165
AAATGTCA	0.0143
GAGAGTGA	-0.176
ACGGAGAG	-0.127
TCCTCACA	-0.088
TACTAAAA	-0.0243
ACCCGTCT	-0.246

Sequence	PBM E-score
CTTGAAAC	0.0394
GCGTGTCA	0.305
GCCCGGGC	-0.036
ACTCCAGA	-0.0745
CACTCTTA	0.11
GACACCTC	-0.081
ATGCGCAC	-0.108
CTTCGACA	0.12
AGAACGAT	0.154
ACTAGTAG	0.114
AGGGCGAA	-0.259
AAAGCGTG	0.0569
CAAACGAC	0.0854
CCTGAGGC	0.13
CCAGCCCA	-0.18
ATTTTTTA	0.22
AATGTATG	0.199
AGCCCGCG	-0.213
CCGAACGA	-0.179
GGGAAACA	-0.036
CATCCATG	0.157
GACCGGAA	-0.265
TGTCGGAA	-0.00633
GATCGCCA	-0.175
ACAATTTC	0.0299

Sequence	PBM E-score
CGGGGTAA	0.0225
CATTCGGA	0.0282
CCATCCAA	0.019
ATCTGCCG	0.00708
TCTCGCCA	-0.211
GACCACGC	-0.0952
CCACACGC	0.0699
CTGGTAGA	-0.0386
CGTTGTTC	0.0899
CAAGTAAA	0.246
ACCTGGTC	-0.109
CGTGCTAC	-0.0628
ACAGAGGT	0.0763
AGCTTCCA	-0.306
CTTAGAGC	-0.0265
CGTAACAC	0.197
ACAGGCCT	0.00325
CGTTGAAC	0.0522
GGGTGGTA	-0.0515
AGCGATAA	-0.0844
ATATGGTG	-0.0371
CTCTGTAA	0.133
GCTTCCGA	-0.0756
GTGAATTA	0.178
ACCCCCAG	-0.249

Sequence	PBM E-score
GACCAGTA	-0.0991
CCAACTTC	-0.236
CCAACAGA	-0.142
CCTACGCG	0.0958
AGTGCTCG	-0.182
GCTAGGAA	0.0868
CATTCTAG	0.0956
ATCTCGAG	-0.191
GGGCTAAA	-0.189
AGCGGGGA	-0.142
CGGGTTTA	-0.0764
ACACCGCT	-0.00171
CACCTACC	0.039
CAGAAAAA	0.0512
CAACGGTC	-0.116
AGAGGCGA	-0.227
ACACGTAC	0.294
GCCCCATA	-0.194
ACCTTCTA	0.0758
GAGCAATC	-0.124
GGAGGCCA	-0.34
AGAGGCAA	0.409
AGGTAATG	0.279
GCTTGGAA	-0.183
AATTTAAA	0.0101

Sequence	PBM E-score
CTCGTGAC	-0.0128
ACGACCAA	-0.0227
AAATTTCT	0.196
CCTATGCA	0.0643
CACAGAGG	0.0647
GGACCTAC	-0.112
ACACTTCG	0.0312
CCTGGCCG	-0.079
AAGGGACG	-0.0888
TAAAGGCA	0.481
ACAAAAGT	0.14
CAAAGCCG	-0.0128
GGGAATCA	-0.268
ACAAAATC	0.0183
ACTTGATG	0.113
CGAGTAGA	-0.138
CGCTAGGA	-0.00295
CGCATACG	0.0571
CCTTAAGG	0.345
